Test results as given in PMC6919601, “Identification of Plasmodium dipeptidyl aminopeptidase allosteric inhibitors by high throughput screening” (PLoS ONE, 2019).
Out of some 110,000 compounds screened, about 230 (0.21%) showed an effect of 50% or more. Some of the results follow.

molecular target: DPAP1 (Plasmodium falciparum, UniProt Q8IIJ9); test: primary screen, percent inhibition; read by cleavage of a fluorogenic dipeptide substrate; higher = more effect of the substance; design: species or system P. falciparum D10 trophozoite lysates; single well
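Also: 30 min substrate incubation versus DMSO and 10 µM JCP410 controls.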

DPAP1, sequence (Q8IIJ9 whole entry, looked up): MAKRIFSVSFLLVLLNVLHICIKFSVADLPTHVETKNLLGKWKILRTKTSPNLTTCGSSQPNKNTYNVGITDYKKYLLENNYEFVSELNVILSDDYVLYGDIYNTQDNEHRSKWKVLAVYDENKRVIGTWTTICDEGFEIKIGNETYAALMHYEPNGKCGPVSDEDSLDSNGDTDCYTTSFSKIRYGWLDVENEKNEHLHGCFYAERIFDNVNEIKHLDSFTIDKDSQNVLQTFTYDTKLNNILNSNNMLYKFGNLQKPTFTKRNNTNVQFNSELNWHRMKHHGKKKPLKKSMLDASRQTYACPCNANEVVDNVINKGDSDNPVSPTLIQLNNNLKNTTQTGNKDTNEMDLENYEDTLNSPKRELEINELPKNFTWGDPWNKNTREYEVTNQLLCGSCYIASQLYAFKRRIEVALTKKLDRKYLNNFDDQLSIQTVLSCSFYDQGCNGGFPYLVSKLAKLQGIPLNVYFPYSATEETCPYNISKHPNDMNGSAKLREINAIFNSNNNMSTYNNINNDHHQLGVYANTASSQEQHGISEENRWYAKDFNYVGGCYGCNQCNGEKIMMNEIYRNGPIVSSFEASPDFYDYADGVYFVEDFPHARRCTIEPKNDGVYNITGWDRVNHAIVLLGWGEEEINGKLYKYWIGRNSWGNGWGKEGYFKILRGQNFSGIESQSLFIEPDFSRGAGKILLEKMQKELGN

Row | SMILES | % Inhibition @ 10 uM [%]
1 | COc1cc2c(cc1OC)C(c1ccccc1)=NC(C)(C)C2 | 0.162
2 | CCc1nn(CC(=O)O)c(=O)c2cc3sccc3n12 | -1.6
3 | CCOCCCNC(=O)C1CC(=O)N(CCc2ccc(OC)c(OC)c2)C1 (stereo not shown) | -1.79
4 | CCOC(=O)c1c(C)[nH]c(C)c1S(=O)(=O)N(C)Cc1cnn(-c2ccccc2)c1 | -2.68
5 | CCOc1ccccc1C(=O)NCCCn1ccnc1 | 0.331
6 | O=C(C1=C(OC(=O)c2ccco2)c2ccccc2S(=O)(=O)N1Cc1ccccc1)c1ccccc1 | -2.71
7 | CCOC(=O)c1[nH]c2ccccc2c1NC(=O)CCc1ccccc1 | -0.58
8 | Clc1ccccc1OCCCCCN1CCOCC1 | -2.12
9 | COc1cccc(NC(=O)COc2ccc(S(=O)(=O)NC3CCCCC3)cc2)c1 | 1.49
10 | COc1cccc(/C=C2\N=C(c3ccc(C)cc3)OC2=O)c1OC | 3.96
11 | CCC1(OC(=O)c2ccccc2)CC(C)N(C)CC1C (stereo not shown) | -3.65
12 | CCn1ncc(C2=NOC(C(=O)Nc3cccnc3)C2)c1C (stereo not shown) | -4.85
13 | O=C(NCc1ccco1)C12CC3CC(CC(C3)C1)C2 | -5.38
14 | CCOCCn1c(C)c(C(C)=O)c2cc(O)ccc21 | -3.76
15 | CN(C)c1ccc(/C=C(\C#N)c2nc(-c3ccc(Br)cc3)cs2)cc1 | 4.33
16 | Cc1cc(O)n2nc(COc3ccccc3)nc2n1 | -0.671
17 | C=C(C)Cn1c(SC(C)C)nc2c1c(=O)[nH]c(=O)n2C | 0.317
18 | Cc1c(Cl)cccc1N(CC(=O)NC1CC2CCC1C2)S(C)(=O)=O (stereo not shown) | 0.235
19 | O=C(O)c1ccc(CNCCC2=CCCCC2)s1 | -6.24
20 | Cc1c(Cl)cccc1NC(=O)/C=C/c1ccccc1 | 3.16
21 | O=C(O)c1ccccc1N1C(=O)C2C3c4ccccc4C(c4ccccc43)C2C1=O (stereo not shown) | 1.9
22 | Cc1ccc(CN(Cc2ccco2)C(=S)NCC(=O)NCc2ccc3c(c2)OCO3)cc1 | -0.406
23 | CCC(CO)Nc1nc2c(c(=O)n(C)c(=O)n2C)n1C (stereo not shown) | 3.79
24 | CC(C)(C)NC(=O)CSCc1cnn(-c2ccccc2)c1-n1cccc1 | 2.27
25 | CC(=O)N1N=C(c2ccc(Cl)cc2Cl)CC1c1ccccc1 (stereo not shown) | -5.92
26 | CC(NCc1ccc(F)cc1)c1ccccc1 (stereo not shown) | 3.99

Row | SMILES | % Inhibition @ 10 uM [%]
27 | Cc1sc2c(c1C)c(=O)n(Cc1ccccc1)c(=O)n2CC(=O)NC1CCCC1 | 7.9
28 | COc1ccc(CC(=O)N2CCN(c3ccc([N+](=O)[O-])cc3)CC2)cc1 | -0.261
29 | COc1ccc(C(=O)/C=C/c2ccco2)c(OC)c1 | -2.28
30 | COc1ccc(/C(O)=C/C=N/c2ccc3c(c2)OCO3)cc1 | -4.12
31 | Cc1c(Cl)cccc1-c1ccc(C(=O)O)o1 | 9.01
32 | Cc1nc2cc(S(=O)(=O)N3CCC(C(=O)NC(C)c4ccccc4)CC3)ccc2n1C1CCCC1 (stereo not shown) | -0.0309
33 | CC(C)C(C#CC(O)(c1ccccc1)c1ccccc1)N(C)C (stereo not shown) | 1.24
34 | c1ccc(CN2CCN(c3ccccc3)CC2)cc1 | 3.16
35 | CCCCOC(=O)NC(C(F)(F)F)C(F)(F)F | -3.14
36 | Brc1ccc(OCCn2cnc3ccccc32)cc1 | 0.162
37 | O=S(=O)(Nc1ncccn1)c1ccccc1 | -3.48
38 | CN(C)CC(=O)Nc1c2c(nc3ccccc13)CCC2 | 7.92
39 | c1ccc(-c2nnc(Cc3nnc(-c4ccccc4)o3)o2)cc1 | -4.43
40 | O=C(O)C1C2CC3C1C(=O)Oc1ccccc1C1c4sc(O)nc4SC2C13 (stereo not shown) | 2.95
41 | CCOc1ccc(CC(=O)NC2CCCCC2)cc1OCC | 0.145
42 | CN(CC(=O)O)S(=O)(=O)c1cccs1 | -0.458
43 | Cc1ccc2oc(-c3cc(N)ccc3Cl)nc2c1 | -0.712
44 | COc1ccc(OC)c(CNC(=O)CN2C(=O)CSc3c2c(C)nn3-c2ccccc2)c1 | 9.03
45 | Cc1ccc(OC(C)c2nc(-c3nonc3N)no2)cc1C (stereo not shown) | -1.06
46 | CCNC(=O)c1cc2c(=O)n3cc(C)ccc3nc2n(CC2CCCO2)c1=N (stereo not shown) | -3.27
47 | COc1ccc(-c2nc3cc(C)ccc3[nH]2)cc1OC | -2.28
48 | CCOC(=O)c1cccc(Oc2nc(C)nc3sc4c(c23)CCCC4)c1 | 0.147
49 | CCSc1ncc(S(=O)(=O)c2ccccc2)c(N)n1 | 5.62
50 | Cc1ccc(S(=O)(=O)N(C)CC(=O)NCCO)cc1 | -1.6
51 | CCOC(=O)C1=c2s/c(=C/c3ccncc3)c(=O)n2C(N)=C(C#N)C1c1ccncc1 (stereo not shown) | 4.75
52 | CCCCSCCCNC(=O)C1CCC(CNS(=O)(=O)c2ccc(Cl)cc2)CC1 (stereo not shown) | -6.4

Row | SMILES | % Inhibition @ 10 uM [%]
53 | O=C(NCCC1=CCCCC1)C1CCCN(S(=O)(=O)c2cccs2)C1 (stereo not shown) | 5.74
54 | CCOC(=O)c1c(C)n(CCc2ccccc2)c2ccc(O)cc12 | -3.37
55 | COc1ccc(CN2CCN(c3ccccn3)CC2)cc1Br | 4.81
56 | CC1(C)C(=O)N(CN2CCOCC2)C(=O)N1CN1CCOCC1 | 19.2
57 | CCN(CC)S(=O)(=O)c1cccc(C(=O)NC2CCCCC2)c1 | -6.44
58 | Clc1ccc2c(c1)[C@H]1OCC[C@H]1[C@@H](c1ccco1)N2 | -2.65
59 | CN1C(=O)C(=CNc2ccccc2O)C(=O)N(C)C1=O | -1.06
60 | CSc1ncc(Cl)c(C(=O)N(Cc2ccccc2)C2CCS(=O)(=O)C2)n1 (stereo not shown) | 0.569
61 | COc1cccc2c1OC1(CCN(C(C)=O)CC1)N1N=C(c3ccccc3)CC21 (stereo not shown) | 1.52
62 | CC1(C)CC(N(Cc2cccs2)C(=O)c2ccco2)CCO1 (stereo not shown) | 0.032
63 | Cc1ccc2c(c1)-c1onc(C(=O)NC3CCCC(C)C3C)c1CO2 (stereo not shown) | -3.47
64 | CC(C)N1C(=O)S/C(=C/c2ccc(N3CCOCC3)cc2)C1=O | 2.22
65 | O=C(CC1COc2ccccc2O1)Nc1ccc(Br)cc1 (stereo not shown) | -3.04
66 | COc1cccc2sc(Nc3nc4cc5c(cc4s3)OCCO5)nc12 | -4.96
67 | COc1cc(/C=C2\SC(Nc3ccccc3Cl)=NC2=O)ccc1OCC(=O)O | 7.76
68 | Nc1nonc1C(=O)NCCCNC(=O)c1nonc1N | -3.13
69 | CCn1cc(C2=NOC(C(=O)Nc3cc(C)on3)C2)c(C)n1 (stereo not shown) | -8.58
70 | O=C(Cn1cc(S(=O)(=O)Cc2ccccc2)c2ccccc21)NCc1ccccc1Cl | 3.72
71 | COc1ccc(OC)c(NS(=O)(=O)c2ccc(Cl)nc2)c1 | 5.31
72 | CC1CCN(C(=O)C2C3C=CC(C3)C2C(=O)O)CC1 (stereo not shown) | -1.32
73 | CCOc1ccccc1NC(=O)c1cc2ccccc2cc1O | 12.6
74 | O=C(/C=C/c1ccccc1)Nc1ccc(Cl)c(Cl)c1 | -1.38
75 | CC(CCc1ccccc1)NC(=O)CN1CCN(Cc2ccc(F)cc2Cl)C1=O (stereo not shown) | 0.51
76 | COCCN1C(=O)/C(=C/c2ccc(C)cc2)S/C1=N\c1ccccc1 | -11.1
77 | CCN1CCN(Cc2ccccc2C(F)(F)F)CC1 | -3.56
78 | NC(=O)c1cc(S(=O)(=O)N2CCN(c3ncccn3)CC2)cs1 | 0.879

Row | SMILES | % Inhibition @ 10 uM [%]
79 | CCOc1ccccc1C(=O)Nc1ccc(Cl)cc1 | -6.2
80 | Cc1nn2c(=O)/c(=C/c3ccccc3)sc2nc1=O | -1.75
81 | CCN1CCN(C(=O)c2oc3ccc4c(c3c2C)C(=O)CC2(CCCCC2)O4)CC1 | 3.87
82 | CCOc1ccccc1Nc1nc(N)nc(CN(C)C2CCCCC2)n1 | -4.49
83 | COCc1cc(C)nc(SCC(=O)NCc2ccco2)c1C#N | -5.34
84 | Cc1nc(C)c(-c2cc(C)c3c(C)nc(C)nc3n2)c(N)n1 | 1.44
85 | COc1ccc(NC(=O)CSc2n[nH]c(-c3ccccc3O)n2)cc1 | -1.08
86 | COc1ccc(OCC(=O)Nc2c(C(=O)N3CCN(c4ncccn4)CC3)oc3ccccc23)cc1 | 4.6
87 | Cc1ccccc1CNCc1c(C(=O)O)n(Cc2cccc(F)c2)c2ccccc12 | -5.3
88 | CC(C)c1ccc(OCC(O)CN2CCN(c3ccccc3F)CC2)cc1 (stereo not shown) | -8.78
89 | CSc1nc(/C=C2\C=Nc3ccccc32)c(O)[nH]1 | 0.76
90 | COc1ccc(Cc2nc3ccccc3[nH]2)cc1OC | -10.8
91 | CC1CCCCN1CCNC(=O)Cn1ncc2c3ccccc3n(C)c2c1=O (stereo not shown) | -0.23
92 | COc1ccc(CN2CCCCC2CCO)cc1Br (stereo not shown) | -3.27
93 | COc1ccc(C(=O)N2CCN(Cc3cccc(OC)c3OC)CC2)cc1OC | -15.2
94 | Cc1ccc2nc(O)c3cc(C(=O)NCCc4ccsc4)sc3c2c1 | 1.72
95 | CC(C)OC(=O)C1=C(N)OC2=C(C(=O)CC(C)(C)C2)C1c1ccccc1 (stereo not shown) | -5.36
96 | COc1ccc(S(=O)(=O)N(CC(=O)Nc2ccccc2Cl)c2ccc(C)cc2)cc1OC | 5.07
97 | COc1ccc(C2C(C(=O)Nc3cnc4ccccc4c3)c3ccccc3C(=O)N2C)cc1 (stereo not shown) | 5.11
98 | COc1ccc(-c2noc(CNC(=O)COc3ccc(Br)cc3)n2)cc1 | 0.276
99 | CC(C)NC(=O)CN(c1ccc(C23C[C@H]4C[C@@H](C2)C[C@@H](C3)C4)cc1)S(C)(=O)=O | -4.49
100 | COc1ccc2nc(NC(=O)CSc3nnnn3-c3ccccc3)sc2c1 | 3.47
101 | COc1ccc(OC2CCN(S(=O)(=O)c3ccc(F)cc3)CC2)cc1 | 3.66
102 | O=C(Nc1ccccc1O)c1cccc(S(=O)(=O)Nc2ccccc2Cl)c1 | -1.78
103 | O=C(CN1C(=O)CSc2ncccc21)NC1CCCCCC1 | 4.22
